This passage reports self-cleavage results from the RNAGym collection of RNA variant scans (doi:10.1093/nar/gkz1192).

The source gives no read counts; variants with many changes may rest on few reads.

First the molecules themselves.
B1: CPEB3 Ribozyme (parent)
chain: UAACAGGGGGCCACAGCAGAAGCGUUCACGUCGCAGCCCCUGUCAGAUUCUGGUGAAUCUGCGAAUUCUGCUGUAUAUCUC

The variants in the data set derive from B1. The data set can be described thus: self-cleavage, relative activity (ratio to wild type); higher = more cleavage; in vitro, sequencing. In outline:
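Libraries of CPEB3 self-cleaving ribozyme mutants came from rounds of error-prone PCR and carried barcodes, which DNA sequencing matched to variants. In vitro transcription used T7 RNA polymerase at 37°C for 5 hours, with a further 15 min in DNase I before EDTA stopped the reaction; the ribozymes cleaved during both steps. The RNA was reverse transcribed with template switching and sequenced on Illumina. Relative activity is the cleaved/total read fraction of a variant divided by that of the unmutated ribozyme, averaged over three batches with at least 5 reads.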
As for UAAUAGGGGGCCACAGCAGUAGCGUUCACGUCGCAGCCCCCGUCAGAUUCUGGUGAAUCUGCGAAUUCUGCUGUAUAUCUC, the self-cleavage was 0.51. Turning to UAAUAGGGGGCCACAGCAGAAGCGUUCACGUCGCGGCCCCUGUCAGAUUCUGGUGGAUCUGCGAAUUCUGCUGUAUAUCAC, the self-cleavage worked out at 1.32.

Turning to UAAUAGGGGGCCACAGCAGAAGCGUUCGCGUCGCAGCCCCUGUCAGAUUCCUGUGAAUCUGUGAAUUCUGCUGUAUAUCUC, the self-cleavage is 0.25. As for UAAUAGGGGGCCACAGCAGACGCGGUCACGUCGCAGCCCCUGUCAGAUUCUGGCGAAACUGCGAAUUCUGCUGUAUAUCUC, the self-cleavage was determined as 0.18. For UAAUAGGGGGCCACGGCAGAAGCGUUCACGUCGCGGCCCCUGUCAGAUUCUGGUGAAUCUGCGAAUUCUGCUGUAUAACUC, the self-cleavage came out at 1.1.

Take UAAUAGGGGGCCACGGCAGAAGCGUUCACGUCGCAGCCCCUGUCAGAUUCUGGUGAUUCUGCGAAUUCUGCUGUAUACCUC: the self-cleavage amounted to 0.5. Regarding UAAUAGGGGGCCACAGCAGGAGCGAUCACGUCGCGGCCCCUGUCAGAUUCUGGUGAAUCUGCGAAUUCUGCUGUAUACCUC, the self-cleavage came out at 0.17. With UAAUAGGGGGCCACAGCUGAAGCGUUCACGUCGCAGCCCCUGUCAGAUUCUGGUGGAUCUGCGAAUUCUGCUGUAUAUCUC, the self-cleavage was 0.79. For UAAUAGGGGGCCACAGCAGAGGCGUUCGCGUCGCACCCCCUGCCAGAUUCUGGUGAAUCUGCGAAUUCUGCCGUAUAUCUC, the self-cleavage was 0.09.

With UAAUAGGGGGCCACAGCAGAAGCGUUCACGUCGCAGCCCCUGUCUGAUUCAGGUGAAUCAGCGAAUUCUGCUGUAUAUCUC, the self-cleavage was found to be 1.18. To UAAUAGGGGGCCACAGCUGAAGCGUUCACGUCGCAGCCCCUGUCAGAUUCUGGUGAAUCUGCGAAUUCUCCUGUAUAUCUC belongs 0.3; to UAAUAGGGGGCCUCAGCAGAAGCGUUCACGUCGCGGCCACUGUCAGAUUCUGGUGAAUCUGCGAAUUCAGCCGUAUAUCAC, 0.12. For UAAUAGGGGGCCACGGCUGAAGCGUUCGCGUCGCAGCCCCUGUCAGAUUCUGGCGAAUCUGCGAAUUCUGCUGUAUAUCUC the value was 0.15; for UAAUAGGGGGCCACAGCAGAAGCGUUCUCGUCGCGGCCCCUAUCAGAUCCUGGUGAAUCUGCGAAUCCUGCUGUAUAUCCC, 0.08. For the variant UAAUAGGGGGCCACAGCAGAUGCGCUCACGUCGCAGCCCCUGUCUGACUCUGGUGAAUCUGCGAAUUCUGCUUUAUAUCUC, the self-cleavage came out at 0.08. Regarding UAAUAGGGGGCCUCAGCAGAGGCGUUCACGUCGCAGCCCCUGUCAGAUUCUGGUGAAUCUGCGAAUUCCGCUGUGAAUCUC, the self-cleavage was determined as 0.18.

On to UAAUAGGGGGCCACAGCUGAAGCGUUCACGUCGCAACCCCUGUCAGAUUCUGGUGAAUCUGCGAAUUCUGCUGUAUAUCCC, for which the self-cleavage was determined as 0.62.

For the variant UAAUAGGGGGCCACAGCAGAAGCGUUCACGUCGCAGCCCCUGUCAGAUUCUGGUGAGUCCGCGAAUUCUGCUGUGUAUCUC, the self-cleavage turned out to be 0.46.

Turning to UAAUAGGGGGCCACAGCAGAGGCGUUCACGUCGCAGCCCCUGUCAGGUUCUGGUGAGUCUGCGAAUUCUGCCGUAUAUCUC, the self-cleavage was determined as 0.48.

Take UAAUAGGGGGCCACAGCAGAAGCGUUCACGUCGCAGCCCCUGUCUGAUUCUGGUGAAUCUGCGAGUUCCGCUGUGUAUCUC: the self-cleavage came to 0.23. For UAAUAGGGGGCCACAGCGGGAGCGCUCACGUCGCAGCCCCUGUCAGAUUCUGGUGUAUCUGCGAAUUCCGCUGAAUAUCUC, the self-cleavage amounted to 0.15.

As for UAAUAGGGGGCCACAGCAGAAGCGUUCUCGUCGCAGCCCCUGUCAGAUUCUGGUGAAUCAGCGAAUCCUGCUGUAUAUCUC, the self-cleavage is 0.34. Turning to UAAUAGGGGGCCACAGCAGACGCGUUCACGUCGCAGCCCCUGUCAGAUUCUGGUGAGUCUGCGAAUUCUGCUGUAUAUCUC, the self-cleavage worked out at 0.41. As for UAAUAGGGGGCCACUGCAGAAGCGUUCACGUCGCAGCCCCUGUCAGAUUCUGGUGAAUCUGCGAAUCCUGCUGUAUAUCUC, the self-cleavage came to 0.41. In the case of UAAUAGGGGGCCACAGCAGGAGCGUUCACGUCGCAGCCCCUGUCUGAUUCUGGUGUAUCUGCGAAUUCUGCUGUAUAUCUC, the self-cleavage came to 0.26. Turning to UAAUAGGGGGCCACAGCAGAAGCGUUCACGUCGCAGCCCCUGUCAGAUUCUGGUGAGUCUGCGAAUUCUGCUGAAUAUCUC, the self-cleavage worked out at 1.17. With UAAUAGGGGGCCACAGCUGAGGCGUUCACGUCGCAGCCCCUGUCAGAUUCUGGUGUAUCUGCGAACUCUGCUGUAUAUCUC, the self-cleavage stood at 0.17. Take UAAUAGGGGGCCACAGCAGAAGCGUUCGCGUCGCAGCCCCUGUCAGGUUCUGGUGAAUCUGCGAAUUCUGCUGUAUAUCUC: the self-cleavage worked out at 0.78. With UAAUAGGGGGCCACAGCAGUAGCGUUCACGUCGCAGCCCCUGUCAGAUUCAGGUGAAUCUGCGAAUUCUGCUGAAUAUCUC, the self-cleavage amounted to 0.94.

In the case of UAAUAGGGGGCCACAGCAGAAGCGUUCACGUCGCUGCCCCUGCCAGAUUCUGGUGGAUCUGCGAAUUCUGCUGUAUAUCUC, the self-cleavage is 0.16. Regarding UAAUAGGGGGCCACUGCAGAAGCGUUCACGUCGCAGCCCCUGUCAGAUUCUGGUGAAUCUGCGAAUUCUGCUGUAUACCUC, the self-cleavage was 1.23. As for UAAUAGGGGGCCACAGCAGAAGCGUUCACGUCGCAGCCCCUGUCAGAUUCUGGUGAGUCUGCGAAUUCUGCUGUAUAUCUU, the self-cleavage was 1.21. With UAAUAGGGGGCCACAGCCGAGGCGUUCAAGUCGCAGCCCCUGUCAGAUUCUGGUGAAUCUGCGAAUUCUGCUGUAUAUCAC, the self-cleavage was determined as 0.6.

With UAAUAGGGGGCCACAGCAGAGGCGUUCUCGUCGCGGCCCCUGACAGAUUCUGGUGAAUCUGCGAAUUCUGCCGUAUAUCCC, the self-cleavage amounted to 1.18.
